Measured values taken from the supplement of paper PMC10126150.
Sequences with one replicate were seen in a single cluster, so their values are uncertain.

Test system: ATP
Test: switch fluorescence ratio, 500 uM ATP over buffer (Cy3 cluster intensity, sum of 5 cycles each) (fold (ratio)); higher = stronger signal-on switching upon ATP binding; sequences stand for … in TCGTCGGCAGCGTCAGATGTGTATAAGAGACAGTTTTTTTTTTTTTTTTTTTTTTTTT…TC
Conditions: aptamer strand: ATP DNA aptamer (quencher-CACCTGGGGGAGTATTGCGGAGGAAGG + anchor), 100 nM annealed; ATP concentration: 500 uM; one replicate
In short: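 Clusters carrying Cy3-labelled switching strands on a modified Illumina MiSeq flow-cell were annealed to 100 nM quencher-labelled ATP aptamer and imaged in selection buffer. They were imaged again after 15 min with 500 uM ATP at 22 °C, over five buffer/ATP cycles with NaOH stripping and re-annealing in between. For each cluster, the fluorescence ratio is the summed Cy3 intensity of the target cycles divided by that of the buffer cycles, averaged per switch-domain sequence. Clusters outside 100-1000 RFU were left out.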
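Note: ATP exposure 15 min at 22 °C before imaging.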

CATATACCCT
switch fluorescence ratio: 1.09

ACCTTTATAG
switch fluorescence ratio: 0.992

TGAGAGCCTG
switch fluorescence ratio: 0.996

CACATAGTGT
switch fluorescence ratio: 1

GAATTGGGAC
switch fluorescence ratio: 1.01

GTAGTATGAC
switch fluorescence ratio: 1.02

AAGGAGCCGG
switch fluorescence ratio: 1.01

TTAGGCAGTG
switch fluorescence ratio: 0.954

GCTATGTCAA
switch fluorescence ratio: 0.945

CCTTACAATG
switch fluorescence ratio: 1.31

TTCCATACTC
switch fluorescence ratio: 1.28

CTGTTTGACT
switch fluorescence ratio: 0.988

TCAATTGAAG
switch fluorescence ratio: 1.05

GAACTCCGAG
switch fluorescence ratio: 1.43

GAACAACGA
switch fluorescence ratio: 0.978

CGGAACTTGG
switch fluorescence ratio: 0.987

AGACCATATG
switch fluorescence ratio: 1.01

CGTTAGAGTC
switch fluorescence ratio: 1.03

TTTTACTCA
switch fluorescence ratio: 1.01

TAGCGCCATA
switch fluorescence ratio: 1.04

CATTATTCTA
switch fluorescence ratio: 0.993

TACGAATGCT
switch fluorescence ratio: 1.01

CCATGCCGTA
switch fluorescence ratio: 1.05

CGCCTTAAAA
switch fluorescence ratio: 0.989

GGCCCAGCCG
switch fluorescence ratio: 0.975

ATAGGCCTTA
switch fluorescence ratio: 1.02

ACTAATCGTC
switch fluorescence ratio: 0.991

AAATGACTCC
switch fluorescence ratio: 1.22

ACTGAGAGTA
switch fluorescence ratio: 1.03

TGTTTGTGAC
switch fluorescence ratio: 0.968

GCAGGAGATC
switch fluorescence ratio: 0.98

GCTCACGATA
switch fluorescence ratio: 1.23

TGAAAGTGCC
switch fluorescence ratio: 1.01

ATTTACGCG
switch fluorescence ratio: 0.987

CTATCAGCGG
switch fluorescence ratio: 0.983

TACCGCCGAG
switch fluorescence ratio: 1.12

TTGCAAGATT
switch fluorescence ratio: 1.09

GGTGCTAGCC
switch fluorescence ratio: 1.01

TTTGGCGCCT
switch fluorescence ratio: 0.93

TTTCTACTTG
switch fluorescence ratio: 1.05

TATGGGTTCC
switch fluorescence ratio: 1.04

TGATACGGTA
switch fluorescence ratio: 1.09

GGCAGAATTG
switch fluorescence ratio: 1

ATCGAAATCT
switch fluorescence ratio: 1.09

CGCACAACAA
switch fluorescence ratio: 1.1

TGTGGGCGG
switch fluorescence ratio: 0.997

CGACAGGCGG
switch fluorescence ratio: 0.982

AAAATCGTGT
switch fluorescence ratio: 0.99

CAGCAGTGGA
switch fluorescence ratio: 0.997

GCGTGGGCGG
switch fluorescence ratio: 0.983

ATAGTAGAAG
switch fluorescence ratio: 0.964

GTCCCGGCCA
switch fluorescence ratio: 0.952

TGTAGCCTAC
switch fluorescence ratio: 1.14

AAGACTCTAA
switch fluorescence ratio: 1.01

AACCTTGTGT
switch fluorescence ratio: 0.97

TCAGATTGTC
switch fluorescence ratio: 0.996

CTACTTTAAT
switch fluorescence ratio: 0.961

CTTATAGTCT
switch fluorescence ratio: 0.973

GGGAATAGTC
switch fluorescence ratio: 1.02

GCCAGCTATC
switch fluorescence ratio: 1.3

AATACGGTAC
switch fluorescence ratio: 1.72

AGTTTTCTTG
switch fluorescence ratio: 1.01

ACGCGGTACA
switch fluorescence ratio: 1.07

GGCATGGTGC
switch fluorescence ratio: 1.01

ATTCCACTCC
switch fluorescence ratio: 1.19

CTGGGCGGGC
switch fluorescence ratio: 0.954

TTCTCGCAG
switch fluorescence ratio: 1.11

TCCGGGGTGA
switch fluorescence ratio: 2.25

GGCGTTTCCT
switch fluorescence ratio: 0.995

GGCTGCTACT
switch fluorescence ratio: 1.03

ACGTCAGGCT
switch fluorescence ratio: 1.02

GAGGGATAAT
switch fluorescence ratio: 0.964

TTGCCATTCT
switch fluorescence ratio: 1.02

AGGTAAGCAA
switch fluorescence ratio: 1.58

AAATTAACGT
switch fluorescence ratio: 1.17

CGATCTCAG
switch fluorescence ratio: 1.03

CTTTGATTAA
switch fluorescence ratio: 1.04

AATAAGCTAA
switch fluorescence ratio: 1.01

CGGTTTGCCC
switch fluorescence ratio: 0.952

CAGGCCTGCA
switch fluorescence ratio: 0.97

CCGCTTGGGA
switch fluorescence ratio: 1.18

CTTGGGGGGC
switch fluorescence ratio: 1.03

TAAAATTATC
switch fluorescence ratio: 0.994

CTTGATCAGA
switch fluorescence ratio: 1.02

AGATTGGGCC
switch fluorescence ratio: 1

AGTGTGAATC
switch fluorescence ratio: 1.05

GAACACAGG
switch fluorescence ratio: 1.09

CTTGTAATCG
switch fluorescence ratio: 0.964

AGGGGGGTAG
switch fluorescence ratio: 0.97

AATTTATGTA
switch fluorescence ratio: 1.04

GTTAATTTCC
switch fluorescence ratio: 1.01

CGCTTGTTCT
switch fluorescence ratio: 1

TTACGATCGT
switch fluorescence ratio: 1.01

CTCGATATGG
switch fluorescence ratio: 1.05

GTTGGATTGC
switch fluorescence ratio: 0.98

GTTGCCCAAT
switch fluorescence ratio: 1.11

GGAGCCAAAC
switch fluorescence ratio: 1.88

AGAGACAGTT
switch fluorescence ratio: 0.975

AAAATCTTTG
switch fluorescence ratio: 0.972

ACCACAAGCT
switch fluorescence ratio: 1.06

GTGCAGGGAG
switch fluorescence ratio: 0.967

TAAGACTGAC
switch fluorescence ratio: 0.984

CTACGTCCTG
switch fluorescence ratio: 1.04

TAGTATTG
switch fluorescence ratio: 1.04

AAGCTTGTTA
switch fluorescence ratio: 0.981

GAGCGGGGAG
switch fluorescence ratio: 1.03

TGTCACTTCA
switch fluorescence ratio: 1.1

CAGGGGGATC
switch fluorescence ratio: 1.01

GCAGCAAAGA
switch fluorescence ratio: 1.08

TAGGGATAAG
switch fluorescence ratio: 1

CCAGCACGGG
switch fluorescence ratio: 1.09

CGTTCACA
switch fluorescence ratio: 1.05

AATTCGGATT
switch fluorescence ratio: 0.991

GGATTTGATT
switch fluorescence ratio: 1

GCTTTTGTCT
switch fluorescence ratio: 1.04

AGAATGATGT
switch fluorescence ratio: 1.01

CCATACATCT
switch fluorescence ratio: 1.02

CGGATTCCG
switch fluorescence ratio: 0.989

TAGGTCCGAT
switch fluorescence ratio: 0.996

GGCGAAATT
switch fluorescence ratio: 1.01

TTCGCGACGA
switch fluorescence ratio: 1.09

TAAACGGCGT
switch fluorescence ratio: 1.01

AATCTGAGGT
switch fluorescence ratio: 1.04

CAGGGCAGAC
switch fluorescence ratio: 1.51

ATTGAAACAA
switch fluorescence ratio: 1.04

ACATCTAGCT
switch fluorescence ratio: 0.998

TCGTGGGCTG
switch fluorescence ratio: 0.96

TTTTCAGCGT
switch fluorescence ratio: 0.993

TGTTGACAAG
switch fluorescence ratio: 0.994

CAGAGAATGG
switch fluorescence ratio: 1.02

GACTTGCTCC
switch fluorescence ratio: 1.35

TTGCTACGCA
switch fluorescence ratio: 1.01

GTCGCATTGA
switch fluorescence ratio: 1.02

CGTTCCAACC
switch fluorescence ratio: 1.07

GCGTAGGCCT
switch fluorescence ratio: 1.02

GTTTTGTTGC
switch fluorescence ratio: 0.993

TCACTCCCTG
switch fluorescence ratio: 1.26

CAAAGCATAA
switch fluorescence ratio: 1.49

CAACCTGGGC
switch fluorescence ratio: 1.07

AACTTTGTAC
switch fluorescence ratio: 1.06

TGTGGCTGGG
switch fluorescence ratio: 0.996

GGGGCCCTCG
switch fluorescence ratio: 0.989

CATGAACGAG
switch fluorescence ratio: 0.999

CTCCTTAGGT
switch fluorescence ratio: 1.02

ACTGTGGGAT
switch fluorescence ratio: 1.01

CCTACCAAAG
switch fluorescence ratio: 2.46

TGCGAAAACT
switch fluorescence ratio: 1.04

AGAGCTGGAT
switch fluorescence ratio: 1.01

ACAACAATTG
switch fluorescence ratio: 0.998

GTGAATACTG
switch fluorescence ratio: 1.13

AAATCCGCCA
switch fluorescence ratio: 1.99

CCGTCAATG
switch fluorescence ratio: 1.83

CATGGTTTCC
switch fluorescence ratio: 0.995

AAGATTCAAG
switch fluorescence ratio: 0.955

TGCGTATCCT
switch fluorescence ratio: 0.99

GCCTCAGAGC
switch fluorescence ratio: 1.04

TTTCTACGAA
switch fluorescence ratio: 1.11
